Experimental data as given in PubChem BioAssay AID504332 (National Center for Advancing Translational Sciences (NCATS), 2011).
The whole screen tested about 350,000 compounds, of which about 31,000 (8.9%) were called active. The inconclusive results got no clear call from the source; some entries with a clear call stand among them for comparison. The call rests on the fitted dose curve; in most records, active means well fitted inhibition curve with a large enough effect; inconclusive means small, poorly fitted or top-dose-only effect; inactive means no such curve, though single readings can be large or run the other way. Where the call is inconclusive, the potency comes from a doubtful curve fit.

What follows are molecules tested against Histone-lysine N-methyltransferase EHMT2 (Homo sapiens) (UniProt Q96KQ7) (assay: qHTS Assay for Inhibitors of Histone Lysine Methyltransferase G9a). Settings: G9a H3K9 monomethylation, AlphaScreen, 2 h; series mostly up to 59 µM.
How it was run: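 G9a (20 nM) preincubated 15 min RT with compounds, then 500 nM biotinylated H3K9 peptide and 20 uM SAM added; 2 h RT reaction. Monomethyl-H3K9 product detected by AlphaScreen with anti-H3K9me1 antibody, streptavidin donor and anti-rabbit IgG acceptor beads.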
Further: nearly all actives have a fitted effect of over 75% in size.
Potency means the concentration at half of the fitted maximal effect; tags describe the fitted curve by direction and shape.

UniProt Q96KQ7, sequence (Q96KQ7 whole entry, looked up): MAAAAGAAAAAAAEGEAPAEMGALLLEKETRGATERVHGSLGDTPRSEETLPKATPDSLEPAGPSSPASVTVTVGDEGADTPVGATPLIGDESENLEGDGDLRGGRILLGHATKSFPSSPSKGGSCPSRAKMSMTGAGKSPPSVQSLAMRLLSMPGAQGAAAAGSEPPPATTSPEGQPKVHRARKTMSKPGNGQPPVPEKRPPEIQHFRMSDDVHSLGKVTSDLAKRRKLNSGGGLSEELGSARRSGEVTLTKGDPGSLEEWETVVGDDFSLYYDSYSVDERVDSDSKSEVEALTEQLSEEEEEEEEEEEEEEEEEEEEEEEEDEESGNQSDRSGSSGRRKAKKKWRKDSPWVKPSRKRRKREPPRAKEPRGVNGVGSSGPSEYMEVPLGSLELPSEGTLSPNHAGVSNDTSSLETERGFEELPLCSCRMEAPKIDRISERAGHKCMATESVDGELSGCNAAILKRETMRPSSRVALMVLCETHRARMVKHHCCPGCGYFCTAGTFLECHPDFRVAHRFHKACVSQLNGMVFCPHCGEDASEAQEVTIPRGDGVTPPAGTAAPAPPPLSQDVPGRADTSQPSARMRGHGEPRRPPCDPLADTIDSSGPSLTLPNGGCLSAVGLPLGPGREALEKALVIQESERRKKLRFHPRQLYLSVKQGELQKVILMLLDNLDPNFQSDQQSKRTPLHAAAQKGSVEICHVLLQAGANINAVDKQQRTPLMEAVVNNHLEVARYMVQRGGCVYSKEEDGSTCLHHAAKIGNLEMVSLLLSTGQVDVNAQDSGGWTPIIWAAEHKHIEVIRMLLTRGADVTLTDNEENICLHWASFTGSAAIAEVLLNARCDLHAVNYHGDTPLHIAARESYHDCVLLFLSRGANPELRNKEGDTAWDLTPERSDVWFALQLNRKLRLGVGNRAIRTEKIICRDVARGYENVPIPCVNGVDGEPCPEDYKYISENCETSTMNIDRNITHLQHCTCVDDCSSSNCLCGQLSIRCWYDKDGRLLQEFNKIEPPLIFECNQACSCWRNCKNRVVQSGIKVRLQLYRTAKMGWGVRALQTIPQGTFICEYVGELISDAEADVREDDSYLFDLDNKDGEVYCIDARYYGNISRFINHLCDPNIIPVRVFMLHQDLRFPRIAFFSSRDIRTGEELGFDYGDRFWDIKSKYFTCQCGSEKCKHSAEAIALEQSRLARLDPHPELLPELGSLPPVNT

Q: With `CCc1nnc(NC(=O)C2CC(=O)N(CCc3ccc(F)cc3)C2)s1` (centres undefined) as the molecule, how does the Potency read?
A: inconclusive: 89.1 µM [inhibitor, single point]

Q: For `O=C(CCCN1C(=O)/C(=C/c2ccccc2Cl)SC1=S)NCCCN1CCOCC1`, which Potency is on record?
A: inconclusive: 70.8 µM [inhibitor, single point]

Q: Which Potency does the source give for `COc1ccc(C2=NN(c3nc(-c4ccc(CNC(C)=O)cc4)cs3)C(c3ccco3)C2)cc1` (centres undefined) here?
A: inconclusive: 79.4 µM [inhibitor, single point]

Q: Which Potency does the source give for `COc1ccc(C2c3[nH]c4ccccc4c3CCN2CCCn2cccn2)cc1C` (centres undefined) here?
A: inconclusive: 44.7 µM [inhibitor, partial curve, poor fit]

Q: `FC(F)(F)c1ccc(C2[C@H]3CN(Cc4ccc(-c5ccccc5)cc4)[C@H](c4ccccc4)C34CC2(c2ccccc2)C4)cc1` (some centres undefined) was tested. Which Potency did it give?
A: inconclusive: 14.1 µM [inhibitor, single point]

Q: Which Potency does the source give for `O=C(CSc1nnc(-c2ccc(Cl)cc2)o1)N1CCc2ccccc21` here?
A: inactive

Q: Which Potency does the source give for `Cc1ccc(C(=O)CNc2ccccc2C)cc1` here?
A: inconclusive: 22.4 µM [inhibitor, single point]

Q: How did the Potency turn out when `Cc1cc(C)cc(NC(=O)C(NS(=O)(=O)c2cccc3nsnc23)c2ccccc2)c1` (centres undefined) was run?
A: inactive

Q: How did the Potency turn out when `Cc1ccccc1OC(C)C(=O)Nc1ccc2c(c1)OCCO2` (centres undefined) was run?
A: inactive

Q: With `N#CC1=C(N)N(c2ccccc2)C2=C(C(=O)CCC2)C1c1ccccc1` (centres undefined) as the molecule, how does the Potency read?
A: inactive

Q: `CCN(CC)CCN(C(=O)Cn1nnc(-c2ccc(C)o2)n1)C(C(=O)NC1CCCC1)c1ccc(F)cc1` (centres undefined) was tested. Which Potency did it give?
A: inconclusive: 56.2 µM [inhibitor, partial curve]

Q: How did the Potency turn out when `Cc1noc(C)c1S(=O)(=O)Nc1ccc(C(=O)NCc2ccccc2)cc1` was run?
A: inconclusive: 89.1 µM [inhibitor, single point]

Q: How did the Potency turn out when `Cc1ccc(NS(=O)(=O)c2cccc3nsnc23)cc1` was run?
A: inconclusive: 22.4 µM [inhibitor, partial curve, poor fit]

Q: Which Potency does the source give for `COc1ccc(-c2noc(CSc3nnc(Cc4ccccc4)n3-c3cccc(C)c3)n2)cc1OC` here?
A: inconclusive: 12.6 µM [inhibitor, partial curve, poor fit]

Q: Which Potency does the source give for `CO/N=C(\C(=O)O)c1csc(NN=C(C)C)n1` here?
A: active: 22.4 µM

Q: How did the Potency turn out when `CCCCn1c2ccccc2c2nnc(SCC(=O)Nc3ccc(NC(C)=O)cc3)nc21` was run?
A: inconclusive: 28.2 µM [inhibitor, partial curve, poor fit]

Q: `O=C(COc1ccccc1[N+](=O)[O-])Nc1ccccc1N1CCCC1` was tested. Which Potency did it give?
A: active: 44.7 µM

Q: `NS(=O)(=O)c1ccc(CCNc2ccccc2[N+](=O)[O-])cc1` was tested. Which Potency did it give?
A: inactive

Q: `CCN(CC)S(=O)(=O)c1cccc(C(=O)NC(C(=O)Nc2nnc(C3CC3)s2)C(C)C)c1` (centres undefined) was tested. Which Potency did it give?
A: inactive
